Reference: the supplement of paper PMC8728848
The other results are listed elsewhere or left out.

Tests used:
Experiment in all cases: glycan array binding signal (z-score within array); higher = stronger binding
Conditions in all cases: glycan notation: IUPAC condensed, linker removed
Fuc(a1-2)Gal = molecular target: Fuc(a1-2)Gal
Outline: (§1)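 Glycan array binding is given as a within-array Z-score, which can be read as non-binding when negative. The arrays, 3228 of them, came from the Consortium for Functional Glycomics database and were retained only where the protein sequence was available. Z-scores were averaged across arrays of the same protein sequence at different concentrations or buffers and across linkers.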

Fuc(a1-2)Gal(b1-3)GalNAc = molecular target: Fuc(a1-2)Gal(b1-3)GalNAc
Outline: as §1

[1] = molecular target: Fuc(a1-2)Gal(b1-3)GalNAc(a1-3)[Fuc(a1-2)]Gal(b1-4)Glc
Outline: as §1

[2] = molecular target: Fuc(a1-2)Gal(b1-3)GalNAc(a1-3)[Fuc(a1-2)]Gal(b1-4)GlcNAc
Outline: as §1

[3] = molecular target: Fuc(a1-2)Gal(b1-3)GalNAc(b1-3)Gal
Outline: as §1

[4] = molecular target: Fuc(a1-2)Gal(b1-3)GalNAc(b1-3)Gal(a1-4)Gal(b1-4)Glc
Outline: as §1

[5] = molecular target: Fuc(a1-2)Gal(b1-3)GalNAc(b1-4)[Neu5Ac(a2-3)]Gal(b1-4)Glc
Outline: as §1

Fuc(a1-2)Gal(b1-3)GlcNAc = molecular target: Fuc(a1-2)Gal(b1-3)GlcNAc
Outline: as §1

[6] = molecular target: Fuc(a1-2)Gal(b1-3)GlcNAc(b1-2)Man(a1-3)[Fuc(a1-2)Gal(b1-3)GlcNAc(b1-2)Man(a1-6)]Man(b1-4)GlcNAc(b1-4)GlcNAc
Outline: as §1

[7] = molecular target: Fuc(a1-2)Gal(b1-3)GlcNAc(b1-2)Man(a1-3)[Fuc(a1-2)Gal(b1-3)GlcNAc(b1-2)Man(a1-6)]Man(b1-4)GlcNAc(b1-4)[Fuc(a1-6)]GlcNAc
Outline: as §1

[8] = molecular target: Fuc(a1-2)Gal(b1-3)GlcNAc(b1-3)Gal(b1-4)Glc
Outline: as §1

[9] = molecular target: Fuc(a1-2)Gal(b1-3)GlcNAc(b1-3)GalNAc
Outline: as §1

[10] = molecular target: Fuc(a1-2)Gal(b1-3)GlcNAc(b1-3)[Fuc(a1-2)Gal(b1-3)GlcNAc(b1-6)]GalNAc
Outline: as §1

[11] = molecular target: Fuc(a1-2)Gal(b1-3)GlcNAc(b1-3)[Gal(b1-4)GlcNAc(b1-6)]Gal(b1-4)Glc
Outline: as §1

[12] = molecular target: Fuc(a1-2)Gal(b1-3)GlcNAc(b1-3)[Neu5Ac(a2-6)Gal(b1-4)GlcNAc(b1-6)]Gal(b1-4)Glc
Outline: as §1

[13] = molecular target: Fuc(a1-2)Gal(b1-3)GlcNAc6S
Outline: as §1

[14] = molecular target: Fuc(a1-2)Gal(b1-3)[Fuc(a1-4)]GlcNAc
Outline: as §1

[15] = molecular target: Fuc(a1-2)Gal(b1-3)[Fuc(a1-4)]GlcNAc(b1-2)Man(a1-3)[Fuc(a1-2)Gal(b1-3)[Fuc(a1-4)]GlcNAc(b1-2)Man(a1-3)]Man(b1-4)GlcNAc(b1-4)GlcNAc
Outline: as §1

[16] = molecular target: Fuc(a1-2)Gal(b1-3)[Fuc(a1-4)]GlcNAc(b1-2)Man(a1-3)[Fuc(a1-2)Gal(b1-3)[Fuc(a1-4)]GlcNAc(b1-2)Man(a1-6)]Man(b1-4)GlcNAc(b1-4)[Fuc(a1-6)]GlcNAc(b1-4)[Fuc(a1-6)]GlcNAc
Outline: as §1

[17] = molecular target: Fuc(a1-2)Gal(b1-3)[Fuc(a1-4)]GlcNAc(b1-3)[Fuc(a1-3)[Gal(b1-4)]GlcNAc(b1-6)]Gal(b1-4)Glc
Outline: as §1

[18] = molecular target: Fuc(a1-2)Gal(b1-3)[Fuc(a1-4)]GlcNAc(b1-3)[Gal(b1-4)GlcNAc(b1-6)]Gal(b1-4)Glc
Outline: as §1

[19] = molecular target: Fuc(a1-2)Gal(b1-4)Fuc(a1-3)]GlcNAc(b1-2)Man(a1-3)[Fuc(a1-2)Gal(b1-4)[Fuc(a1-3)]GlcNAc(b1-2)Man(a1-6)]Man(b1-4)GlcNAc(b1-4)GlcNAc
Outline: as §1

Fuc(a1-2)Gal(b1-4)Glc = molecular target: Fuc(a1-2)Gal(b1-4)Glc
Outline: as §1

Fuc(a1-2)Gal(b1-4)Glc6S = molecular target: Fuc(a1-2)Gal(b1-4)Glc6S
Outline: as §1

Fuc(a1-2)Gal(b1-4)GlcNAc = molecular target: Fuc(a1-2)Gal(b1-4)GlcNAc
Outline: as §1

[20] = molecular target: Fuc(a1-2)Gal(b1-4)GlcNAc(b1-2)Man
Outline: as §1

[21] = molecular target: Fuc(a1-2)Gal(b1-4)GlcNAc(b1-2)Man(a1-3)[Fuc(a1-2)Gal(b1-4)GlcNAc(b1-2)Man(a1-6)]Man(b1-4)GlcNAc(b1-4)GlcNAc
Outline: as §1

[22] = molecular target: Fuc(a1-2)Gal(b1-4)GlcNAc(b1-2)Man(a1-3)[Fuc(a1-2)Gal(b1-4)GlcNAc(b1-2)Man(a1-6)]Man(b1-4)GlcNAc(b1-4)[Fuc(a1-6)]GlcNAc
Outline: as §1

[23] = molecular target: Fuc(a1-2)Gal(b1-4)GlcNAc(b1-2)[Fuc(a1-2)Gal(b1-4)GlcNAc(b1-4)]Man(a1-3)[Fuc(a1-2)Gal(b1-4)GlcNAc(b1-2)Man(a1-6)]Man(b1-4)GlcNAc(b1-4)GlcNAc
Outline: as §1

[24] = molecular target: Fuc(a1-2)Gal(b1-4)GlcNAc(b1-3)Gal(b1-4)GlcNAc
Outline: as §1

B1: CBM13 2a (Mycobacterium tuberculosum), P64849 (protein)
chain: DGPVQLKSRLGDVCLDAPSGSWFSPLVINPCNGTDFQRWNLTDDRQVESVAFPGECVNIGNALWARLQPCVNWISQHWTVQPDGLVKSDLDACLTVLGGPDPGTWVSTRWCDPNAPDQQWDSVPLEHHHHHH
- glycan array binding signal (z-score) (Fuc(a1-2)Gal): -0.264
- glycan array binding signal (z-score) (Fuc(a1-2)Gal(b1-3)GalNAc): -0.217
- glycan array binding signal (z-score) [1]: -0.047
- glycan array binding signal (z-score) [2]: -0.177
- glycan array binding signal (z-score) [3]: -0.308
- glycan array binding signal (z-score) [4]: -0.34
- glycan array binding signal (z-score) [5]: -0.189
- glycan array binding signal (z-score) (Fuc(a1-2)Gal(b1-3)GlcNAc): -0.27
- glycan array binding signal (z-score) [6]: 0.181
- glycan array binding signal (z-score) [7]: -0.067
- glycan array binding signal (z-score) [8]: -0.265
- glycan array binding signal (z-score) [9]: -0.307
- glycan array binding signal (z-score) [10]: -0.162
- glycan array binding signal (z-score) [11]: -0.299
- glycan array binding signal (z-score) [12]: 0.016
- glycan array binding signal (z-score) [13]: 0
- glycan array binding signal (z-score) [14]: -0.206
- glycan array binding signal (z-score) [15]: 0.318
- glycan array binding signal (z-score) [16]: -0.061
- glycan array binding signal (z-score) [17]: -0.282
- glycan array binding signal (z-score) [18]: -0.247
- glycan array binding signal (z-score) [19]: 0.139
- glycan array binding signal (z-score) (Fuc(a1-2)Gal(b1-4)Glc): -0.079
- glycan array binding signal (z-score) (Fuc(a1-2)Gal(b1-4)Glc6S): -0.081
- glycan array binding signal (z-score) (Fuc(a1-2)Gal(b1-4)GlcNAc): -0.294
- glycan array binding signal (z-score) [20]: -0.076
- glycan array binding signal (z-score) [21]: -0.022
- glycan array binding signal (z-score) [22]: 0.023
- glycan array binding signal (z-score) [23]: 0.472
- glycan array binding signal (z-score) [24]: -0.362
